# Measurements: publication PMC4336329 (PLoS ONE, 2015)
# Out of some 310,000 compounds screened, about 2,200 (0.71%) showed an effect of 50% or more. Effects have a minus sign here. Some of the results follow.
# Molecular target: human ether-à-go-go-related gene (hERG) potassium channel (human, UniProt Q12809)
# Assay: primary screen, population patch clamp on CHO cells stably expressing hERG
# Sequence of human ether-à-go-go-related gene (hERG) potassium channel (Q12809 whole entry, looked up): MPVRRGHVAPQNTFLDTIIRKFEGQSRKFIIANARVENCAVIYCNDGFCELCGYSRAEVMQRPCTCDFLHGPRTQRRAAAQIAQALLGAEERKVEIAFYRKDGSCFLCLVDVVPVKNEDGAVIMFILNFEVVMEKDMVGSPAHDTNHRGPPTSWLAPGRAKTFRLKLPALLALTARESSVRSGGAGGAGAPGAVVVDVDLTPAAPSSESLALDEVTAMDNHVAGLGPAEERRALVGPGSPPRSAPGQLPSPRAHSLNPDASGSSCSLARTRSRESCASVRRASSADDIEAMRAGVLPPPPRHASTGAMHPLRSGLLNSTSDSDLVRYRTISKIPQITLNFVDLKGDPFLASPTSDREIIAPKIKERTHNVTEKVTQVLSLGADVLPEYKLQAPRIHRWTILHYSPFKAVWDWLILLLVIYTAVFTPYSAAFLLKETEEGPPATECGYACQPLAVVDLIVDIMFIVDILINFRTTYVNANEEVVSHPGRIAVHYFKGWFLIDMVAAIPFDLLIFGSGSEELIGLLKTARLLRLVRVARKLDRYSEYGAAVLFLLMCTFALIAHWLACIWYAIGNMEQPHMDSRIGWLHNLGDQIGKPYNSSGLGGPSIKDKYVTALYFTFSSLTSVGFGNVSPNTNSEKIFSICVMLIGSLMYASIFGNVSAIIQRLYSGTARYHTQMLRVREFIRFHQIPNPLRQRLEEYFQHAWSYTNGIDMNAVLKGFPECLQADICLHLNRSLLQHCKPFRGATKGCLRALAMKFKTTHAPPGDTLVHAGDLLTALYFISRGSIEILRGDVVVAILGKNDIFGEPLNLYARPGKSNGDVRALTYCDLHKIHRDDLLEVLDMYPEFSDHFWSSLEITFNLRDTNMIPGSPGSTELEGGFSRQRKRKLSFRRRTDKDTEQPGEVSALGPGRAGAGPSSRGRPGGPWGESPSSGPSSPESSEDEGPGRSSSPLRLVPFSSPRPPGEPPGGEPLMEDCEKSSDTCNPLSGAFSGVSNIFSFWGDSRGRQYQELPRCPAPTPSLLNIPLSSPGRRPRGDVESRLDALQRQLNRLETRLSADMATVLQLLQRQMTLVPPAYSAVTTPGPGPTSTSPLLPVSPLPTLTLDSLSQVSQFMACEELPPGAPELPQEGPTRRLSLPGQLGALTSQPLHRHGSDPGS
row,SMILES,"hERG current change (%, negative = inhibition) at 1uM [%]"
1,CCC(C)N(C(=O)Cn1nnc(-c2ccc(Cl)cc2)n1)C1CCS(=O)(=O)C1 (stereo not drawn),3.46
2,CCc1ccc(NC(=O)CO/N=C(\C)c2cc3ccccc3o2)cc1,5.18
3,CC(=O)Nc1cccc2c1C(=O)N(c1cccc(C)c1)C2=O,15.6
4,N#CCCN(C(=O)COC(=O)c1ccc(S(=O)(=O)N2CCCC2)cc1)c1cccc(Cl)c1,12
5,CC1=Nc2cc(C(=O)NCCCOC(C)C)ccc2Sc2ccccc21,3.61
6,CCCN=Cc1sc2ccc(OCC)cc2c1O,5.92
7,CCN(CC(=O)Nc1ccc(OC)cc1)CC(=O)Nc1ccc(Cl)cc1F,-1.53
8,Cc1nnc(-n2ncc(C#N)c2N)c2nn(-c3cccc(Cl)c3)c(C)c12,-0.406
9,CN(c1ccc(OCC(=O)N2CCCC2)cc1)S(=O)(=O)c1ccc(Cl)cc1,0.957
10,CCc1ccc(OCC2Cn3c(nc4c3c(=O)[nH]c(=O)n4C)O2)cc1 (stereo not drawn),13.5
11,O=C(NCCCN1CCOCC1)c1ccc(S(=O)(=O)N2CCOCC2)cc1,1.48
12,Cn1ccc(NC(=O)Nc2ccc(Cl)cc2)n1,19.2
13,COCCOC(=O)C1=C(C)Nc2ncnn2C1c1ccc(F)cc1 (stereo not drawn),2.42
14,Cc1cccc(NC(=O)COC(=O)c2ccc3c(c2)OCO3)c1C,8.73
15,CC(=O)N1CCc2cc(S(=O)(=O)CCC(=O)N(C)Cc3ccco3)ccc21,16.5
16,COc1cc(NC(=S)Nc2ncccc2C)cc(OC)c1OC,16
17,O=C1C=C(c2ccc(F)cc2OCc2ccccc2)C[C@@H](c2ccc(F)cc2)C1,6.61
18,CCc1cc2c(CN3CCN(C)CC3)cc(=O)oc2cc1O,18.1
19,CC(=O)c1c(N2CCN(c3ccccc3)CC2)nc(=S)n(-c2ccccc2)c1C,2.93
20,O=C(OCC(=O)N1N=C(c2ccc(Cl)cc2)CC1c1ccco1)c1ccccc1O (stereo not drawn),17
21,COc1ccccc1CNC(=O)COC(=O)c1ncc(Cl)c(Cl)c1Cl,8.89
22,CCN1CCN(C(=S)Nc2ccc([N+](=O)[O-])cc2)CC1,-9.28
23,O=C(CN1C(=O)/C(=C/c2cccc(Br)c2)SC1=S)Nc1cccnc1,13.8

row,SMILES,"hERG current change (%, negative = inhibition) at 1uM [%]"
1,COc1ccc(OC(=O)c2cccc(S(=O)(=O)N3CC(C)OC(C)C3)c2)cc1 (stereo not drawn),-1.04
2,Cc1nn(CCC#N)c2[nH]c(=O)cc(C(F)(F)F)c12,11
3,O=C(Nc1ncc([N+](=O)[O-])s1)c1cccs1,20.4
4,O=C(NCCc1ccccc1F)c1ccc2c(c1)OCCO2,9.2
5,CCOC(=O)[C@@H]1[C@H]2COc3cc(OC)ccc3[C@@H]2N2C(=O)N(c3ccc(Cl)cc3)C(=O)[C@]12C,6.49
6,CCc1ccc(CNC(=O)CCc2nnc(CCc3ccc(OC)cc3)o2)nc1,-17.9
7,CC1CCCC(NC(=O)COC(=O)COc2ccccc2Cl)C1C (stereo not drawn),11.8
8,CCn1c(C)cs/c1=N\C(=S)Nc1ccccc1C,4.76
9,CC1Cc2ccccc2N1Cc1nc2cc(Cl)ccc2c(=O)[nH]1 (stereo not drawn),11.7
10,CCOC(=O)[C@@H]1[C@H]2COc3ccc(Br)cc3[C@H]2N2C(=O)N(c3cccc(Cl)c3)C(=O)[C@]12C,4.01
11,CCOc1ccccc1C(=O)NC(C)c1ccc(-n2ccnc2)cc1 (stereo not drawn),-34.8
12,COc1ccccc1CCC(=O)Oc1ccccc1C#N,9.6
13,Cc1nc2ccc(Cl)cn2c1C(=O)NN,16.9
14,COc1ccc2[nH]c3c(=O)n(Cc4ccc(C(=O)N5CCCC5)cc4)c(=S)[nH]c3c2c1,6.75
15,CCOc1ccccc1CNC(=O)Cn1c(=O)oc2ccccc21,9.38
16,COc1cccc(NC(=O)C2C3C=CC(C3)C2C(=O)O)c1 (stereo not drawn),5.29
17,O=C1/C(=C/c2cccs2)SC(=S)N1NS(=O)(=O)c1ccccc1,-7.22
18,COc1ccccc1NC(=O)c1csc2c1CCCC2,3.12
19,CCN(CC(=O)Nc1ccc2c(c1)OCCO2)CC(=O)Nc1ccc2c(c1)OCO2,17.5
20,COCc1[nH]nc2c1C1(C(=O)N(C)c3ccccc31)C(C#N)=C(N)O2 (stereo not drawn),7.41
21,O=C(OCC(=O)N(c1ccccc1)C1CCCCC1)c1ccc(CO)cc1,7.97
22,COC(=O)C1=C(C)N=C2SCCC(=O)N2C1c1cccs1 (stereo not drawn),12.5
